According to article PMC4336329 (PLoS ONE, 2015):
About 14,000 (4.5%) of roughly 310,000 compounds showed an effect of 50% or more. The effect is printed as a negative number. Some of the results follow.

Biological target: human ether-à-go-go-related gene (hERG) potassium channel (human, UniProt Q12809)
Assay: primary screen, population patch clamp on CHO cells stably expressing hERG
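Note: peak tail current of the secondary pulse compared with the same well before compound.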

Chain of human ether-à-go-go-related gene (hERG) potassium channel (Q12809 whole entry, looked up): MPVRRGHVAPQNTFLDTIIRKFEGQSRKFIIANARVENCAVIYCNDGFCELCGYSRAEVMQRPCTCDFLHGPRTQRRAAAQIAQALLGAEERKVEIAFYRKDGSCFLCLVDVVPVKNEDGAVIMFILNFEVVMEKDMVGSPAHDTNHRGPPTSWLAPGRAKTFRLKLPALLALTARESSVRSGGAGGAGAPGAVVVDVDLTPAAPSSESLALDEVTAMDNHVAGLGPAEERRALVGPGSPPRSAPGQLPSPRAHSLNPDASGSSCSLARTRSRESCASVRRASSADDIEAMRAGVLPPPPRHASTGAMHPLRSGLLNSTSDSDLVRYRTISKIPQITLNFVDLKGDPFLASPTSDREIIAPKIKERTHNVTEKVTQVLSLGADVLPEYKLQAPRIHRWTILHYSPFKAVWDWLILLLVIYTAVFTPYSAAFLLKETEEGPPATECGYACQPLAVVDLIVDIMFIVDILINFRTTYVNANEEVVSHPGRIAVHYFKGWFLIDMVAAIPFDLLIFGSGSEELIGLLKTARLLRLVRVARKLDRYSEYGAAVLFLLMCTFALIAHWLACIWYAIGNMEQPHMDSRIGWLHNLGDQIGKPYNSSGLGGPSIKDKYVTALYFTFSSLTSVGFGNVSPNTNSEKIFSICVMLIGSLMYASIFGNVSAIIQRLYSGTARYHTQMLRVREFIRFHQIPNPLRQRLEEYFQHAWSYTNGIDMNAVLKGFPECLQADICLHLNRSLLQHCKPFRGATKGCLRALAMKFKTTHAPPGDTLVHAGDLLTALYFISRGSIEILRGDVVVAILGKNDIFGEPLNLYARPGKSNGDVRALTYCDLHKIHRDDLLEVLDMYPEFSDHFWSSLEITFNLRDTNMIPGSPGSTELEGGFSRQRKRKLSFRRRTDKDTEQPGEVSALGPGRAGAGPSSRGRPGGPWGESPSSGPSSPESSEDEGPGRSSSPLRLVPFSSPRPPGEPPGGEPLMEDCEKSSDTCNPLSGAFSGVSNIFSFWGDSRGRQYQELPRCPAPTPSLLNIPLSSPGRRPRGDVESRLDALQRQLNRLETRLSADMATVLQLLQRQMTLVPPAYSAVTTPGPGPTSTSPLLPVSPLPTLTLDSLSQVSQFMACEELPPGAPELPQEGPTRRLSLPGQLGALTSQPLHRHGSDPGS

| Structure (SMILES) | hERG current change (%, negative = inhibition) at 10uM [%] |
| --- | --- |
| Clc1ccc2c(N/N=C/c3ccccc3Br)ccnc2c1 | 16.3 |
| Cc1nnsc1Sc1ccccn1 | 28.2 |
| Nc1cccnc1Sc1cccc(Cl)c1 | -6.62 |
| CC(=O)Nc1ccc(S(=O)(=O)N2CCC3(CC2)OCCO3)cc1 | 17.9 |
| O=C(/C=C/c1cccc([N+](=O)[O-])c1)NCCSCc1ccc(Cl)cc1Cl | 4.75 |
| COC(=O)N1[C@H](C)C=C[C@]1(Cc1ccccc1)C(=O)OC | -2.17 |
| N#Cc1ccsc1NC(=O)C1CCN(C(=O)c2ccc(F)cc2)CC1 | -45.7 |
| COc1ccc(C2C(C(C)=O)=C(O)C(=O)N2CCO)c(OC)c1 (stereo not shown) | 14 |
| O.Oc1cc(O)c2c(c1)OC(c1ccc(O)c(O)c1)C(O)C2 (stereo not shown) | -5.86 |
| Cc1cc(NS(=O)(=O)c2ccc(NC(=O)c3oc4ccccc4c3C)cc2)no1 | -8.02 |
| CC(C)CC(NC(=O)c1cccc(Cl)c1)C(=O)O (stereo not shown) | 25 |
| CCOC(=O)N1CCN(C(=O)c2ccccc2CCc2ccccc2)CC1 | -59.1 |
| Cn1c(-c2ccccc2)cnc1NCc1cc(Cl)ccc1O | 19.9 |
| COc1ccccc1NC(=O)c1ccc(NS(=O)(=O)c2ccc(F)c(F)c2F)cc1 | -6.5 |
| O=C1NC(=O)/C(=C\c2ccc(Sc3ccc(Cl)cc3)o2)N1 | 2.37 |
| Cc1nn(-c2ccccc2)c(Cl)c1/C=N/NC(=O)c1ccncc1 | 1.04 |
| Cc1cc(OCC(=O)OC(C)C(=O)Nc2ccc(N3CCOCC3)cc2)ccc1Cl (stereo not shown) | 2.54 |
| CC1=NN(c2ccccc2)C(=O)C1C(=O)c1cc([N+](=O)[O-])cc([N+](=O)[O-])c1 (stereo not shown) | 2 |
| O=C(Oc1cccc2cccnc12)c1cccc(N2C(=O)C3C4CCC(C4)C3C2=O)c1 (stereo not shown) | -7.07 |
| Cc1occc1C(=O)NC1CCCCCCC1 | 1.53 |
| COc1ccccc1N1CCN(Cc2ccccc2Cl)CC1 | -23.5 |
| Cn1c(NNC(=O)c2c(F)cccc2F)cc(=O)n(C)c1=O | -6.67 |
| O=C(CSc1ccc(Cl)cc1)Nc1ccc(NC(=O)c2ccco2)cc1 | 3.29 |
| COc1cccc(C(=O)Nc2ccc3c(C)cc(=O)oc3c2)c1 | 9.06 |
| COCCNC(=O)c1cccc(OC2CCN(Cc3cccc(SC)c3)CC2)c1 | -35.2 |
| COc1ccc(N(C)C(=O)Cc2c(C(=O)O)[nH]c3ccccc23)c(OC)c1 | 25.8 |
| COCCNC(=O)c1onc(CSc2cccc(Cl)c2)c1C(=O)O | 16.3 |
| CC(O)CNC(=O)C1CCN(Cc2ccc(OCc3ccccc3)cc2)CC1.O=C(O)C(=O)O (stereo not shown) | -33.2 |

| Structure (SMILES) | hERG current change (%, negative = inhibition) at 10uM [%] |
| --- | --- |
| O=C1C(=O)N(c2ccccn2)C(c2ccc(Br)cc2)/C1=C(/O)c1ccc(Br)cc1 (stereo not shown) | -47.8 |
| O=C(OCc1nc2ccccc2s1)c1ccco1 | 7.79 |
| O=C1N=C([O-])CN1/N=C/c1ccc(-c2ccc([N+](=O)[O-])cc2)o1.[Na+] | -18 |
| Oc1ccc2ccccc2c1C=Nc1ccccc1Br | 3.7 |
| Cc1[nH]nc2c1C(CC(C)C)C(C#N)=C(N)O2 (stereo not shown) | 21.3 |
| Clc1ccc(-c2ccnc(Oc3cc(Cl)ccc3Cl)n2)cc1 | 14.6 |
| COc1ccc(NC(=O)CN2C(=O)C(C)Oc3ccccc32)cc1 (stereo not shown) | -0.0431 |
| CCC(C)[C@H](NC(=O)C1CCN(C(=O)[C@H](Cc2ccccc2)NC(=O)OC(C)(C)C)CC1)C(=O)O (stereo partly shown) | -1.42 |
| Cc1ccc2c(c1)C(c1ccccc1)N(C(=O)c1c(F)cccc1Cl)CC(=O)N2 (stereo not shown) | -22.3 |
| Cc1ccc(S(=O)(=O)/N=C2/C=C(C3C(=O)CC(C)(C)CC3=O)C(=O)c3ccccc32)cc1 | 0.322 |
| O=c1c2ccccc2cnn1-c1ccc(Cl)cc1 | -1.86 |
| NC(=O)CCS(=O)(=O)CCN1CCCCC1 | 17.4 |
| N#CC1=C(N)Oc2cc(N)ccc2C1c1cccc(F)c1 (stereo not shown) | -19.8 |
| O=C(CSc1nc2ccccc2o1)Nc1ccc(N2CCOCC2)c(Cl)c1 | -9.82 |
| C=CCNC(=O)c1onc(CSc2cccc(OC)c2)c1C(=O)O | 18.2 |
| CC(=O)O[C@H]1CC(C)(C)C(=C=C/C(C)=C/C=C/C(C)=C/C=C/C=C(C)/C=C/C=C(\C)C(=O)C[C@@]23O[C@]2(C)C[C@@H](O)CC3(C)C)[C@](C)(O)C1 | 3.02 |
| COc1ccc(NC(=O)CSc2nnc(NC(C)=O)s2)c([N+](=O)[O-])c1 | 13 |
| CC(C)(C)c1ccc2c(c1)OC(C(=O)N/N=C/c1ccc([N+](=O)[O-])o1)CO2 (stereo not shown) | -39.2 |
| Cc1ccccc1N/N=C1\CCCNC1=O | 3.4 |
| Cl.Cn1nnnc1SCCNCc1ccccc1OCc1ccccc1Cl | -27.6 |
| COc1cc(-c2nnc(COC(=O)CSc3cc(C)c4ccccc4n3)o2)cc(OC)c1OC | -0.253 |
| O=C1C=C(c2cccc(CO)c2)C[C@@H](c2ccc3c(c2)OCO3)C1 | -18.7 |
| CC1CN(C(=O)c2ccccc2)OC(c2ccc3c(c2)OCO3)O1 (stereo not shown) | -13.7 |
| O=C(CN1C(=O)c2ccccc2C1=O)Nc1cc([N+](=O)[O-])ccc1O | 16.2 |
| CCOc1ccc(N(C(C)C(=O)NC2CCCCCC2)S(C)(=O)=O)cc1 (stereo not shown) | -1.85 |
| C=C(C)Cn1c(SCC(=O)N/N=C/c2ccccc2)nc2ccccc2c1=O | 7.5 |
| CC(=O)c1ccc(N(C(=O)c2ccco2)C(C(=O)NC2CCCC2)c2ccc(N3CCOCC3)cc2)cc1 (stereo not shown) | -15.2 |
